Source: PMC4336329 (PLoS ONE, 2015)
Among all 310,000 compounds or so, about 2,200 (0.71%) showed an effect of 50% or more. Effects have a minus sign here. The list shows a part of the results.

Target: human ether-à-go-go-related gene (hERG) potassium channel (human, UniProt Q12809)
Assay: primary screen, population patch clamp on CHO cells stably expressing hERG

Sequence of human ether-à-go-go-related gene (hERG) potassium channel (Q12809 whole entry, looked up): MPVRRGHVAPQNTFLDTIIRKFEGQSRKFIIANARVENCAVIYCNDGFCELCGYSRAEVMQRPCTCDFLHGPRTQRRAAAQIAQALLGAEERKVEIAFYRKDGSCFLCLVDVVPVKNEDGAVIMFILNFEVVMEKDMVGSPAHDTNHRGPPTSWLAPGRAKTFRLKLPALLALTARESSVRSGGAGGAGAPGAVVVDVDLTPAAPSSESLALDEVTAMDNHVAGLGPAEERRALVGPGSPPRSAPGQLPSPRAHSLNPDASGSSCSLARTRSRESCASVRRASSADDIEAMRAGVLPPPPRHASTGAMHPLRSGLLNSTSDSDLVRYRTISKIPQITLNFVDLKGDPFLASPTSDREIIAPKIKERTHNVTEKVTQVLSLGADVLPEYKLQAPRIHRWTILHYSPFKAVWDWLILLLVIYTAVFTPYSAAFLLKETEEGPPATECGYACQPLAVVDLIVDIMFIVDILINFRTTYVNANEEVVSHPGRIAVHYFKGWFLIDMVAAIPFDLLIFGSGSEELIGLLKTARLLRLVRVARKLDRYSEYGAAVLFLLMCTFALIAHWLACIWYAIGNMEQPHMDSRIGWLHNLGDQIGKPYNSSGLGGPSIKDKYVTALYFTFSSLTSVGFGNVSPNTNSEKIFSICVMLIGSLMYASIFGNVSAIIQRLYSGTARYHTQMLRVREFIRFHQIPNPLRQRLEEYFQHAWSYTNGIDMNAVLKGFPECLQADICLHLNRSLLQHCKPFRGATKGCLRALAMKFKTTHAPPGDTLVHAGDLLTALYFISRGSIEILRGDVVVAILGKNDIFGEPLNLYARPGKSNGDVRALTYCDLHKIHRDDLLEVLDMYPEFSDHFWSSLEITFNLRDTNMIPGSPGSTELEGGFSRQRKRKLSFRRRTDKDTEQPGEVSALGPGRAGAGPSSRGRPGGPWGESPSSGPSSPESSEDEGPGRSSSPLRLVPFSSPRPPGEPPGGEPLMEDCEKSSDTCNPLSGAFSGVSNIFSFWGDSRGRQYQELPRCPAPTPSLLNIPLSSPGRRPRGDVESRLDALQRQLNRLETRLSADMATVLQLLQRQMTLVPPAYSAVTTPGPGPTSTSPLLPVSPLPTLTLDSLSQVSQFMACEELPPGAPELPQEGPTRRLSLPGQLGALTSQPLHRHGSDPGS

| Structure (SMILES) | hERG current change (%, negative = inhibition) at 1uM |
| --- | --- |
| CC(=O)C1=C(C)OC(N)=C(C#N)C1c1cccnc1 (centres unmarked) | -4.54% |
| COC(=O)c1ccc(NC(C(=O)OC)C(C)C)c([N+](=O)[O-])c1 (centres unmarked) | 3.82% |
| C#CCCOC(=O)N1C2=NC(C(=O)OC)=C(C(=O)OC)[C@@H]3Nc4ccccc4[C@]23C[C@H]1C(=O)OC | 10.1% |
| CCC(C)Sc1nnc(NC(=O)C2CCN(C(=O)c3ccco3)CC2)s1 (centres unmarked) | -26.8% |
| CCc1ccc(N2CC(C(=O)Nc3ccc(C)c(S(=O)(=O)N4CCOCC4)c3)CC2=O)cc1 (centres unmarked) | -2.8% |
| O=C(N[C@@H](Cc1ccccc1)C(=O)Nc1ccc(F)cc1)C1CCNCC1 | 14.4% |
| O=S(=O)(NCCC1=CCCCC1)c1ccc(OC(F)(F)F)cc1 | -18.1% |
| COc1ccc(S(=O)(=O)Nc2c(C)c(C)cc3c2ncn3C)cc1 | 3.58% |
| Cc1ccc(C)c(CN2C(=O)CSc3ccc(C(=O)NCCN4CCOCC4)cc32)c1 | 20.1% |
| O=C(NC(CC(=O)N1CCN(c2ccccc2O)CC1)c1ccccc1)c1ccccc1Cl (centres unmarked) | -15.6% |
| Cc1ccc2c(CC(=O)N3CCOCC3)coc2c1 | 2.04% |
| COc1ccc(N(CC(=O)Nc2ccccc2OC)S(=O)(=O)c2ccccc2)cc1Cl | 14.2% |
| Cc1c(C)n(Cc2ccccc2)c2ccc(C(=O)NCCN3CCOCC3)cc12 | 11.9% |
| O=C(c1ccc2oc(CCc3ccccc3)nc2c1)N1CC[C@H](O)C1 | 11.3% |
| CCC(C)c1ccccc1NC(=O)C(C)OC(=O)c1ccco1 (centres unmarked) | -11.2% |
| Cc1ccc(S(=O)(=O)N2CCCC2C(=O)OCC(=O)Nc2ccc3c(c2)OCO3)cc1 (centres unmarked) | 10.8% |
| O=C(C1CCCN1C(=O)c1cccs1)N1CCN(S(=O)(=O)c2ccc(F)cc2)CC1 (centres unmarked) | 13.8% |
| COc1cc2c(cc1OC)-c1cc(Nc3ccccc3Br)nc(=O)n1CC2 | 14.8% |
| CCc1ccc2c(c1)C(NC(C)=O)C(=O)N2CC (centres unmarked) | 10.8% |

| Structure (SMILES) | hERG current change (%, negative = inhibition) at 1uM |
| --- | --- |
| COCCn1ccc2c(OCC(=O)NCCc3ccc(OC)c(OC)c3)cccc2c1=O | -11.2% |
| FC(F)(F)c1cccc(Sc2cc(C(F)(F)F)nc(-c3ccccn3)n2)c1 | 8.02% |
| CCOC(=O)c1cc(-c2ccc(F)cc2)n(CCC(=O)NC2CCN(Cc3ccccc3)CC2)c1C | -26% |
| CNc1cc(=O)n(C)c(=O)n1-c1ccccc1 | 13.3% |
| Cc1[nH]c2ccccc2c1/C=C(\C#N)C(=O)NCc1ccccc1 | 13.6% |
| COc1cc(OC)cc(C(=O)NC(C(=O)NCc2ccccn2)C(C)C)c1 (centres unmarked) | 10.7% |
| CCCCNC(=O)N1CCOCCOCCN(C(=O)NCCCC)CCOCCOCC1 | 7.75% |
| CN1CCC(N(C)C(=O)c2cc(-c3ccccc3Cl)nc3ccccc23)CC1.Cl | -48.1% |
| CCCN(CC(=O)Nc1ccccc1OC)C(=O)c1cccc(S(=O)(=O)NCc2ccccc2)c1 | 11.3% |
| Nc1nc2nccc(-c3cccnc3)n2n1 | 13.6% |
| CC(C)(C)CC(C)(C)NC(=O)/C=C/C(=O)O | 11.1% |
| COc1cc(C(=O)ONC(=O)c2ccc(OC(F)F)cc2)cc(OC)c1OC | 16.6% |
| CC1CN(C(=O)COC(=O)c2ccc(C#N)cc2)CC(C)O1 (centres unmarked) | 10.1% |
| CC(=O)c1cc(-c2ccc(F)cc2)n(CCC(=O)Nc2cccc(C)n2)c1C | 15% |
| Cc1cc(NCCCn2ccnc2)n2c(nc3ccccc32)c1C#N | 9.83% |
| COc1ccc(OCC(=O)OCC(=O)NCc2ccc(F)cc2)cc1 | 7.78% |
| O=C(Cc1ccc(Cl)cc1)NNC(=O)Nc1cccc2ccccc12 | 16.7% |
| O=C(O)C1C2CCC(O2)C1C(=O)NC1CCCCC1 (centres unmarked) | 6.99% |
| Cc1ccc(N2C(=O)C3NN=C(C(=O)OCc4ccccc4)C3C2=O)c(C)c1 (centres unmarked) | 6.13% |

| Structure (SMILES) | hERG current change (%, negative = inhibition) at 1uM |
| --- | --- |
| N#CCCN1CCN(S(=O)(=O)c2ccc(S(=O)(=O)NC3CC3)cc2)CC1 | 5.87% |
| CCCc1cc(C(=O)N2CCN(c3ccc(C(F)(F)F)cn3)CC2)sc1C | -14.8% |
| O=C(Cc1ccc([N+](=O)[O-])cc1)N1CCN(c2ccc([N+](=O)[O-])cc2)CC1 | -82.5% |
| N=c1oc2cc(O)ccc2cc1C(=O)Nc1ccc(Br)cc1 | 2.13% |
| COc1ccc(OC)c(NC(=O)CCN2C(=O)c3cccc([N+](=O)[O-])c3C2=O)c1 | 17% |
| OCCN(CCCn1c(-c2ccncc2)nc2ccccc21)c1nc(CN2CCCCC2)cs1 | 20.9% |
| Cc1cc(OCCOCCN(C)CCO)cc(C)c1Cl | 3.39% |
| Cc1c(NC(=O)c2ccc(F)cc2)c(=O)n(-c2ccccc2)n1C | 8.93% |
| Cc1ccc(NC(=O)CN2CCCC2)cc1Br.Cl | 7.18% |
| Cc1ccc(N2CCN(C(=S)Nc3ccccc3C)CC2)cc1 | 16.2% |
| Cc1ccc(C(=O)Nc2sc(C(=O)N(C)C)c(C)c2C#N)cc1 | 11.6% |
| Cc1cccc(NC(=O)c2ccc(C3SCC(=O)N3CCc3ccccc3)cc2)c1C (centres unmarked) | 7.44% |
| COc1ccc(-n2nc(C(=O)NCC(=O)N3CCCCC3)c3ccccc3c2=O)c(OC)c1 | 15.2% |
| COc1ccc(CN(C)c2nc(-c3cccnc3)nc3ccccc23)cc1OC | 25.3% |
| CC(=O)NN1CCc2cc3ccc(C)cc3nc21 | 6.95% |
| CCCNC(=O)c1cc(-c2ccccc2)c(N2CCCCC2)s1 | 16.8% |
| CCOC(=O)c1c(-c2cccs2)csc1N | 17% |
| COc1cccc(N2CCN(c3ccc([N+](=O)[O-])cn3)CC2)c1 | 12% |
